According to PubChem BioAssay AID1508649 (National Center for Advancing Translational Sciences (NCATS), 2021):
Among all 43,000 compounds or so, about 830 (1.9%) were called active. This list was built around the results that the source calls inconclusive (neither active nor inactive); the mix of calls is not that of the screen. Rule for the calls: active = clear falling dose curves in both reporters; inconclusive = both reporters move, but less clearly or upward; inactive = either reporter flat; the % is the NLuc reporter signal. No potency is given beside an inconclusive call; the fits are too rough.

assay: Cell-based coincidence reporter assay to measure PMP22 gene transcription in S16 Pmp22-F2sN cells - Primary screen; conditions: S16 Pmp22-F2sN Schwann cells (luciferase reporters placed in the Pmp22 gene), FLuc/NLuc coincidence luminescence, 24 h; measured here: NLuc reporter readout, at 57.5 µM (top of the series)
In short: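 S16(c9) Schwann cells with FLuc/NLuc coincidence reporter in the Pmp22 3' UTR; compounds pin-transferred, 24 h at 37C. Dual-luciferase read: FLuc first, then NLuc after Stop&Glo, each 10 min at room temperature.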
Potency is the fitted concentration of half-maximal effect; tags give direction and shape of the fitted curve.

SMILES	Potency
CCN1C(=O)C(Cc2nc3ccccc3c(=O)n2-c2ccc(OC)cc2)c2cc(C)ccc21 (stereo unspecified)	inconclusive [phenotype inactive, single point]
CC(C)C1C(=O)Nc2ccc(S(=O)(=O)NCc3ccc(Cl)cc3)cc21 (stereo unspecified)	inconclusive [phenotype inactive, partial curve]
CCn1c(=NC(=O)c2ccc3c(c2)OCCO3)sc2c(C)ccc(OC)c21	active: 9.17 µM
COc1ccc(C)c2sc(N(Cc3cccnc3)C(C)=O)nc12	inconclusive [phenotype inactive, single point]
CCCN1C(=O)c2[nH]nc(-c3ccccc3O)c2C1c1ccc(OCc2ccccc2)c(OCC)c1 (stereo unspecified)	inconclusive [phenotype inactive, single point]
COc1ccc(Cn2c(CNC(=O)c3ccc(N(C)C)cc3)nc3cccnc32)cc1	inactive
CC(C)Oc1ccc(C(=O)Nc2ccc3c(c2)CCCN3C(=O)c2cccs2)cc1	inconclusive [phenotype inactive, single point]
COc1ccc(N2CC(c3nc(-c4ccccc4C)no3)CC2=O)cc1Cl (stereo unspecified)	inconclusive [phenotype inactive, partial curve, poor fit]
CCOC(=O)c1c(NC(=O)COc2ccc(OC)cc2)sc(C(=O)N(CC)CC)c1C	inconclusive [phenotype inactive, single point]
CCOC(=O)c1c(S(=O)(=O)N2CCN(c3cc(Cl)ccc3C)CC2)c(C)n(C)c1C	inconclusive [phenotype inactive, partial curve, poor fit]
Cc1ccc(NC(=O)C2CCCN(S(=O)(=O)c3ccc(C)cc3)C2)cc1 (stereo unspecified)	inactive
Cc1cccc(CCNC(=O)CCc2c(C)nc3c(-c4ccc(F)cc4)c(C)nn3c2C)c1	inconclusive [phenotype inactive, partial curve]
Cc1ccc(OCCSc2nc3ccc(NC(=O)COc4ccc(C)cc4)cc3s2)cc1	active: 8.91 µM
CSc1nc2sc3c(c2c(=O)n1-c1ccc(C)cc1)CCCC3	active: 14.1 µM
COc1ccccc1N(CC(=O)NCCSc1ccccc1)S(=O)(=O)c1ccc(C)cc1	inconclusive [phenotype inactive, single point]
CCOC(=O)c1cc2c(=O)n3ccccc3nc2n(CC2CCCO2)c1=NC(=O)c1ccc(OCC)cc1 (stereo unspecified)	inconclusive [phenotype inactive, partial curve, poor fit]
